The experiment concerns Plasmodium falciparum. Kind of experiment: Primary screen in NF54 nanoGlo assay, in single point, at 2uM, 72h; a lower Z score goes with more inhibition. In kind it is functional, Erythrocyte. The note with it: timepoint 72 hour.

Values joined by “and” are separate entries in the source; they are usually repeats but may differ in a detail not shown here. Equal values may be shown once. Hit rate of the full screen: of about 150,000 compounds, about 540 (0.36%) showed an effect of 50% or more. Some of the results follow.

One may read the % Inhibition as the drop in the measured response relative to a control, in per cent. For the compound `CCc1cnc(NC[C@H]2CCS(=O)(=O)C2)nc1`, the “% Inhibition” value was -16% and the Z score stood at 1.48. In the case of `O=C(N[C@@H]1CN(Cc2cccc(F)c2F)C[C@H]1CO)c1cccnc1`, the “% Inhibition” value is -14% and the Z score worked out at 2.35.

As to `Cc1ccc(C(=O)C(=O)NCc2ccc(N3CCNC(=O)C3)cc2)cc1`, the “% Inhibition” value is given as -10% and the Z score is reported as 1.37.

For `Nc1nc(Oc2ccc(Br)cc2)cc(Oc2ccc(Br)cc2)n1`, the “% Inhibition” value was -6% and the Z score was determined as 1.21. In the case of `CCn1c(C)cc(C(=O)N2CCNC(=O)C[C@H]2c2ccccc2)c1C`, the “% Inhibition” value is listed as -2% and the Z score was 0.28. With `COc1ccc(OC)c(CN2C(=O)c3cc4c(OC)ccc(OC)c4n3C[C@]2(C(=O)NC2CCCCCC2)c2ccccc2)c1`, the “% Inhibition” value was 37% and the Z score was -5.3. The like results for `Cc1ccc(CN(C)C(=O)[C@@H](O)Cc2ccccc2)o1` were, in that order, 0% and 0.04. For the compound `CO[C@H](CNC(=O)c1nnn(Cc2cc(C)no2)c1C)CC(C)C`, the “% Inhibition” value stood at 9% and the Z score was -1.23. Turning to `Cc1ccc(C2=NN(C(=O)CN3CCOCC3)[C@H](c3cccc(F)c3)C2)cc1`, the “% Inhibition” value came to 3% and the Z score is -0.5. For `Cc1nn(CCN2C[C@@H](C(=O)O)CC2=O)c(C)c1Cl`, the “% Inhibition” value is -15% and the Z score was found to be 2.83. On to `O=C(O)CCN1CCC(c2nc3c(s2)CCCC3)CC1`, for which the “% Inhibition” value worked out at 0% and the Z score is -0.04. As for `O=C(Nc1ccc(C(=O)N2CCOCC2)c(F)c1)c1ccsc1`, the “% Inhibition” value is given as -8% and the Z score was determined as 1.29. Take `CC(=O)Nc1c(-c2ccccc2)c(C)nn1-c1ccc(C(=O)N2CCN(c3ccccc3)CC2)cc1`: the “% Inhibition” value is on record as -11% and the Z score came to 1.96. With `Cc1ccc(-c2cc3ncc(C(=O)c4cc(F)ccc4O)cn3n2)cc1`, the “% Inhibition” value is -4% and the Z score stood at 0.4. Consider `Cc1cccc(CNC2=NCCNC23CCN(S(=O)(=O)c2cc(C)cc(C)c2)CC3)c1`, for which the “% Inhibition” value is reported as -4% and the Z score was found to be 0.52.

On to `CCn1ccnc1-c1nc2cc(S(=O)(=O)NC(C)C)ccc2n1C(C)C`, for which the “% Inhibition” value is 3% and the Z score is on record as -0.44. With `Cc1ccc(S(=O)(=O)N2CCc3c(c(-c4nnc(-c5ccc(F)cc5)o4)nn3C)C2)cc1`, the “% Inhibition” value is on record as 1% and the Z score is listed as -0.07. For `Cc1ccc(NS(=O)(=O)c2ccc(NC(=O)Cc3ccccc3)cc2)cc1C` the same measures were 34% and -0.88. The like results for `O=C1CC(C(=O)N2CCCC2c2ccncc2)CN1c1ccccc1` (stereo not given) were, in that order, -8% and 1.05.

With `CN1CCN(C[C@@H]2CN(C(=O)CCCc3ccccc3)C[C@@H]2CO)CC1`, the “% Inhibition” value is reported as 0% and the Z score is -0.01.

On to `COc1ccc2cc(NC(=O)CNC(=O)c3cnccn3)cnc2c1`, for which the “% Inhibition” value is on record as -5% and the Z score was found to be 0.64.

In the case of `O=C(COc1ccccc1-n1cnnc1)Nc1n[nH]c(C2CC2)n1`, the “% Inhibition” value (2 µM) was 1% and -16%.

With `COc1ccnc(NCc2ccc(N(C)C)c(F)c2)n1`, the “% Inhibition” value stood at 6% and the Z score was -0.67. `O=C(NC1(c2noc([C@@H]3CCCO3)n2)CCCCCC1)c1ocnc1C(F)F`: the “% Inhibition” value stood at 4% and the Z score was -0.43. For `CC(=O)N1CCN(C(=O)c2ccc3c(c2)[nH]c(=O)n3C)CC12CCCCC2` the same measures were 2% and -0.28.

Consider `COc1ccc(Cc2nnc(C(=O)NCc3cccnc3)o2)cc1OC`, for which the “% Inhibition” value is listed as -1% and the Z score worked out at 0.22. On to `CC1(C)CC(NC(=O)c2ccccc2F)CC(C)(CNC(=O)c2ccccc2F)C1` (stereo not given), for which the “% Inhibition” value was 9% and the Z score was -1.65. With `COc1cc(C(=O)N2CCN(C(=O)c3ccco3)CC2)on1`, the “% Inhibition” value is -11% and the Z score is 1.51. On to `Cc1nnc(C(=O)NCCc2c(C)n[nH]c2C)s1`, for which the “% Inhibition” value was -8% and the Z score came out at 1.11. For the compound `COC1CCCCC1NC1CCCc2ccccc21` (stereo not given), the “% Inhibition” value is listed as -1% and the Z score is 0.19. In the case of `Cc1cc(C(=O)Cn2nnc3ccccc3c2=O)c(C)n1-c1ccc2c(c1)OCCO2`, the “% Inhibition” value is on record as -5% and the Z score came to 0.94.

On to `CCCN(CCC)c1nc(-c2ccccc2)nc2c1sc(=S)n2-c1ccccc1`, for which the “% Inhibition” value is -2% and the Z score was found to be 0.28. The like results for `CN(Cc1cccc(C#N)c1)S(=O)(=O)c1ccc2c(c1)CCO2` were, in that order, -6% and 1.14. For the compound `CCn1cc(-c2n[nH]cc2C(=O)N[C@@H]2Cc3ccccc3[C@H]2O)cn1`, the “% Inhibition” value was -8% and the Z score came out at 1.28. Turning to `CC(C)(C)OC(=O)N1CCN(c2ccc(NCc3cscn3)nc2)CC1`, the “% Inhibition” value is recorded as -7% and the Z score was 0.88. The like results for `O=C1Cc2ccc(C(=O)NCC3CCOCC3)cc2N1` were, in that order, -9% and 0.89. As for `CCc1nc(COC(=O)c2ccccc2-c2nnc(C)o2)cs1`, the “% Inhibition” value was -12% and the Z score is recorded as 2.17.

In the case of `Cc1nc(N(C)C)nc(N(C)Cc2cc(C3CC3)[nH]n2)c1C`, the “% Inhibition” value is -11% and the Z score was found to be 1.53. As to `Cc1cc(N2CCCS2(=O)=O)ccc1C(=O)Nc1nnc(CC(C)C)s1`, the “% Inhibition” value was -8% and the Z score came out at 1.39. Take `COc1ccc(Cn2c(C)cc(O)c([C@H](c3ccncc3)N3CCN(c4ccccc4)CC3)c2=O)cc1`: the “% Inhibition” value was determined as 2% and the Z score is -0.27.

In the case of `CO[C@@H](CNC(=O)N1CCNC1=O)c1ccco1`, the “% Inhibition” value is reported as 19% and the Z score is on record as -2.41. Turning to `O=C(c1cnn2ccccc12)N1CCC[C@@](O)(C(F)(F)F)C1`, the “% Inhibition” value is 2% and the Z score is reported as -0.29. For `O=C(NCc1ncc[nH]1)c1cc(CN2CCc3ccccc3C2)on1`, the “% Inhibition” value amounted to 1% and the Z score is recorded as -0.22.

For the origin of these results see ChEMBL document CHEMBL4888484, “Replenishing the malaria drug discovery pipeline: Screening and hit evaluation of the MMV Hit Generation Library 1 (HGL1) against asexual blood stage Plasmodium falciparum ,using a nano luciferase reporter read-out” (2022).
